Reference: PMC3519786, “Novel Interactions between FOXM1 and CDC25A Regulate the Cell Cycle” (PLoS ONE, 2012)
These are yes or no findings as the source states them, for the method shown. Some entries that bind do so weakly or less than the wild type.

Tests used:
Assay in all cases: two-hybrid; mammalian two-hybrid (Checkmate, Promega) in U2OS; bait pBIND (GAL4 DNA-binding domain)-FOXM1, prey pACT (VP16 activation domain)-CDC25A, reporter pG5-luc; firefly normalised to Renilla luciferase; 2 days
GAL4-FOXM1 L656A (human) = target: T1, GAL4-FOXM1 L656A (human) (UniProt Q08050)
T1 sequence: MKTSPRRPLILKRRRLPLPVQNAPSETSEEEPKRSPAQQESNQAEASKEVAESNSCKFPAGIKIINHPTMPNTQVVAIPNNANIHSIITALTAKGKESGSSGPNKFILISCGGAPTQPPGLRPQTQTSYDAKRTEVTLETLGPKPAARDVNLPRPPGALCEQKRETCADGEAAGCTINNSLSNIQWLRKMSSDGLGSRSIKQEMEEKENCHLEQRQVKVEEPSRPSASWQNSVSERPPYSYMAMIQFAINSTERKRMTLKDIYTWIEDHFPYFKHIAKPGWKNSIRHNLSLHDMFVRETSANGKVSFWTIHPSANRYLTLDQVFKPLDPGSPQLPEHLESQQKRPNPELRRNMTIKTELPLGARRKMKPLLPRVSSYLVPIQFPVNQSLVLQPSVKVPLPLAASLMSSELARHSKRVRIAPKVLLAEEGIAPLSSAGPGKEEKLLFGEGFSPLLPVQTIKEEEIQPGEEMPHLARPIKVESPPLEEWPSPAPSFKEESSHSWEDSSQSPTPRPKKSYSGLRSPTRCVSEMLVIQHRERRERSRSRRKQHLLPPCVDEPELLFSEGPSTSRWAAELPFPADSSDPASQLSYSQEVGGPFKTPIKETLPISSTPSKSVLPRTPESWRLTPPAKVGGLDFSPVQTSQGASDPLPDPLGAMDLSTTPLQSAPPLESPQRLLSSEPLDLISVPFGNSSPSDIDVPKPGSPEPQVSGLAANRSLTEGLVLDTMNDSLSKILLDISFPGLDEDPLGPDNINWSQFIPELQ

[1] = target: T2, GAL4-FOXM1 N-terminal fragment (amino acids 1-235) (human) (UniProt Q08050)
T2 sequence: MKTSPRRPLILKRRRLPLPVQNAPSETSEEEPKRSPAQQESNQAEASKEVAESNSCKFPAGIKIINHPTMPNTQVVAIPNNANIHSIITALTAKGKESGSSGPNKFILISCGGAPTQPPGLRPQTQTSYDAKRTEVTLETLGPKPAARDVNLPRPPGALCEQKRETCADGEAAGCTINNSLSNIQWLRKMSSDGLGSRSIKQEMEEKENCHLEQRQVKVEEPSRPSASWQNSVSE

[2] = target: T3, GAL4-FOXM1 T600A/T611A/T620A (human) (UniProt Q08050)
T3 sequence: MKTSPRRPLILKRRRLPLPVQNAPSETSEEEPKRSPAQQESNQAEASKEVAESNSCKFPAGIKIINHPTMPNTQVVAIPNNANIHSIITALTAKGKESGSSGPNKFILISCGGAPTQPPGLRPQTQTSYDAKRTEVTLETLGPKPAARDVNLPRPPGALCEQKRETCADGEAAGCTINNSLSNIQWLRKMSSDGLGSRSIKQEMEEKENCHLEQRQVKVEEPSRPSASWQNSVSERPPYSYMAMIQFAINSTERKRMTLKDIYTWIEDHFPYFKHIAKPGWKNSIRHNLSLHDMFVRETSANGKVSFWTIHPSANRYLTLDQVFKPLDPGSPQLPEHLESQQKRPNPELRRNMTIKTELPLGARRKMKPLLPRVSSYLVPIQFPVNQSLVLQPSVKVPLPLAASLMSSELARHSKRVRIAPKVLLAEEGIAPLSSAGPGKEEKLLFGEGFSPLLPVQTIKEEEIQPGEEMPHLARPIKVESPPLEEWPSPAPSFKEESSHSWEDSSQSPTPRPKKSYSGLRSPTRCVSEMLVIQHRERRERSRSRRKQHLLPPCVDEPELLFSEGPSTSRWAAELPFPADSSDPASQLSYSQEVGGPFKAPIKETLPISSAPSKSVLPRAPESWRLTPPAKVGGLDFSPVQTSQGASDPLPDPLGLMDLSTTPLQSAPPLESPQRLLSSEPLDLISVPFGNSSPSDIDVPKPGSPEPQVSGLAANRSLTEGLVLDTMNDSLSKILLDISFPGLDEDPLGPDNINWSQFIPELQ

GAL4-FOXM1 T620A (human) = target: T4, GAL4-FOXM1 T620A (human) (UniProt Q08050)
T4 sequence: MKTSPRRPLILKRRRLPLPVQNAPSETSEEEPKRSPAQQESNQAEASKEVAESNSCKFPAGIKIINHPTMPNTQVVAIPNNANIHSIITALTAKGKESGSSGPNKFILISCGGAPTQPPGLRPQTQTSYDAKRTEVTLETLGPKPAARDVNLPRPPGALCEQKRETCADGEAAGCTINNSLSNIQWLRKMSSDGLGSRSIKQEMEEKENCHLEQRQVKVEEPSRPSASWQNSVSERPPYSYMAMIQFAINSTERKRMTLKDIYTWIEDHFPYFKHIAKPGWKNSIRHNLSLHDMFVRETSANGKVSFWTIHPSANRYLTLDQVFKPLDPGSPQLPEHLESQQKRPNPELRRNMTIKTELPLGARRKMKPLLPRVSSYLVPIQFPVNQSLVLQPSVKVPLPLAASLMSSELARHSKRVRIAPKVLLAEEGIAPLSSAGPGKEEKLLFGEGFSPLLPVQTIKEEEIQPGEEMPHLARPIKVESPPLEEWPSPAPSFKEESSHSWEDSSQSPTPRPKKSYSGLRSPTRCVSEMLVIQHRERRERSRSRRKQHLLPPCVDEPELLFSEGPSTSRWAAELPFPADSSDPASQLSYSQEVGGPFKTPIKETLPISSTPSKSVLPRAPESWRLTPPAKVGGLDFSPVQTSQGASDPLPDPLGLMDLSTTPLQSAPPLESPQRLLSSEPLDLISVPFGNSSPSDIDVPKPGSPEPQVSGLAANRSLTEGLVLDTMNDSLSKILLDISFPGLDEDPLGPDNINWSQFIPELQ

B1: VP16-CDC25A (natural protein, UniProt P30304 1-524, looked up)
chain: MELGPEPPHRRRLLFACSPPPASQPVVKALFGASAAGGLSPVTNLTVTMDQLQGLGSDYEQPLEVKNNSNLQRMGSSESTDSGFCLDSPGPLDSKENLENPMRRIHSLPQKLLGCSPALKRSHSDSLDHDIFQLIDPDENKENEAFEFKKPVRPVSRGCLHSHGLQEGKDLFTQRQNSAPARMLSSNERDSSEPGNFIPLFTPQSPVTATLSDEDDGFVDLLDGENLKNEEETPSCMASLWTAPLVMRTTNLDNRCKLFDSPSLCSSSTRSVLKRPERSQEESPPGSTKRRKSMSGASPKESTNPEKAHETLHQSLSLASSPKGTIENILDNDPRDLIGDFSKGYLFHTVAGKHQDLKYISPEIMASVLNGKFANLIKEFVIIDCRYPYEYEGGHIKGAVNLHMEEEVEDFLLKKPIVPTDGKRVIVVFHCEFSSERGPRMCRYVRERDRLGNEYPKLHYPELYVLKGGYKEFFMKCQSYCEPPSYRPMHHEDFKEDLKKFRTKSRTWAGEKSKREMYSRLKKL
notes: CDC25A (cell division cycle 25A) dual phosphatase; plasmid bought from Origene; also called pACT-CDC25A; wild-type CDC25A; source: mammalian two-hybrid fusion, U2OS, transfected
Question: For B1, which binding (GAL4-FOXM1 L656A (human)) is on record?
Answer: Its binding is “binds”.

Question: What about the binding [1] of the same binder?
Answer: The binding was “no binding”.

Question: What about the binding [2] of the same binder?
Answer: Its binding is “binds”.

Question: What about the binding (GAL4-FOXM1 T620A (human)) of the same binder?
Answer: The binding was “binds”.
